Laboratory results as given in PubChem BioAssay (NCI).
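Values below derive from 48-hour exposures of cells grown in 96-well plates, with endpoints linearly interpolated between the two concentrations bracketing the appropriate inhibition level. GI50 = concentration required for 50% inhibition of growth.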 Certain results were filed several times, with different values. Only these are listed. An entry can have further records. A record mostly stands for its own series of concentrations, which the source does not state; a value can be the end of its range.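 TGI: concentration producing complete growth inhibition.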

Key:
Experiment in all cases: growth of human tumour cells (NCI), 48 h
RXF 393 renal = system: RXF 393 renal
U251 CNS = system: U251 CNS
NCI-H23 lung = system: NCI-H23 lung
HCT-15 colon = system: HCT-15 colon
NCI-H460 lung = system: NCI-H460 lung
OVCAR-8 ovarian = system: OVCAR-8 ovarian
OVCAR-4 ovarian = system: OVCAR-4 ovarian
MDA-MB-231 breast = system: MDA-MB-231 breast
NCI-H522 lung = system: NCI-H522 lung
EKVX NSCLC = system: EKVX NSCLC
UACC-62 melanoma = system: UACC-62 melanoma
T-47D breast = system: T-47D breast
HL-60(TB) leukemia = system: HL-60(TB) leukemia
SK-MEL-2 melanoma = system: SK-MEL-2 melanoma
SNB-19 CNS = system: SNB-19 CNS
IGROV1 ovarian = system: IGROV1 ovarian
MALME-3M melanoma = system: MALME-3M melanoma
M14 melanoma = system: M14 melanoma
SF-295 CNS = system: SF-295 CNS
BT-549 breast = system: BT-549 breast
SK-OV-3 ovarian = system: SK-OV-3 ovarian
OVCAR-3 ovarian = system: OVCAR-3 ovarian
K-562 leukemia = system: K-562 leukemia
KM12 colon = system: KM12 colon
HCC-2998 colon = system: HCC-2998 colon
SF-268 CNS = system: SF-268 CNS
CCRF-CEM leukemia = system: CCRF-CEM leukemia
PC-3 prostate = system: PC-3 prostate
COLO 205 colon = system: COLO 205 colon
LOX IMVI melanoma = system: LOX IMVI melanoma
SW-620 colon = system: SW-620 colon
SK-MEL-5 melanoma = system: SK-MEL-5 melanoma
SF-539 CNS = system: SF-539 CNS
ACHN renal = system: ACHN renal
MOLT-4 leukemia = system: MOLT-4 leukemia
NCI/ADR-RES ovarian = system: NCI/ADR-RES ovarian
HS 578T breast = system: HS 578T breast
RPMI-8226 leukemia = system: RPMI-8226 leukemia
SN12C renal = system: SN12C renal
UO-31 renal = system: UO-31 renal
DU-145 prostate = system: DU-145 prostate
A549 NSCLC = system: A549 NSCLC

## COc1cc(C2C3=C(COC3=O)Oc3cc4c(cc32)OCO4)cc(OC)c1OC (configuration not stated)
RXF 393 renal
  TGI: 36.3 nM and 15.1 µM
U251 CNS
  TGI: 244 nM and 12.7 µM
NCI-H23 lung
  TGI: 113 nM and > 31.6 µM
HCT-15 colon
  TGI: 154 nM and 16.9 µM
NCI-H460 lung
  TGI: 94.9 nM and 13 µM
OVCAR-8 ovarian
  TGI: 267 nM and > 31.6 µM

## COC(=O)C1CCC(NC(=O)c2csc([C@@H](C[C@H](C(C)C)N(C)C(=O)[C@@H](NC(=O)[C@H]3CCCCN3C)C(C)C)OC(C)=O)n2)CC1 (some centres not stated)
OVCAR-4 ovarian
  GI50: 41.3 nM and 1.32 µM
MDA-MB-231 breast
  TGI: 81.9 nM and > 33.3 µM

## Nc1ccn([C@@H]2O[C@H](COP(=O)(O)O[C@@H]3C[C@H](n4cc(F)c(=O)[nH]c4=O)O[C@@H]3COP(=O)(O)O[C@@H]3C[C@H](n4cc(F)c(=O)[nH]c4=O)O[C@@H]3COP(=O)(O)O[C@@H]3C[C@H](n4cc(F)c(=O)[nH]c4=O)O[C@@H]3COP(=O)(O)O[C@@H]3C[C@H](n4cc(F)c(=O)[nH]c4=O)O[C@@H]3COP(=O)(O)O[C@@H]3C[C@H](n4cc(F)c(=O)[nH]c4=O)O[C@@H]3COP(=O)(O)O[C@@H]3C[C@H](n4cc(F)c(=O)[nH]c4=O)O[C@@H]3COP(=O)(O)O[C@@H]3C[C@H](n4cc(F)c(=O)[nH]c4=O)O[C@@H]3COP(=O)(O)O[C@@H]3C[C@H](n4cc(F)c(=O)[nH]c4=O)O[C@@H]3COP(=O)(O)O[C@@H]3C[C@H](n4cc(F)c(=O)[nH]c4=O)O[C@@H]3COP(=O)(O)O[C@@H]3C[C@H](n4cc(F)c(=O)[nH]c4=O)O[C@@H]3COP(=O)(O)OCCOCCOCCOCCOCCOCCO)[C@H](O)C2O)c(=O)n1 (some centres not stated)
NCI-H522 lung
  GI50: 13.3 µM and 54.4 nM
EKVX NSCLC
  GI50: > 21.1 µM and 541 nM
UACC-62 melanoma
  TGI: 64.3 nM and > 100 µM
T-47D breast
  GI50: 2.35 µM and > 100 µM
HL-60(TB) leukemia
  GI50: 317 nM and > 100 µM
SK-MEL-2 melanoma
  GI50: > 21.1 µM and 555 nM
MDA-MB-231 breast
  GI50: 4.8 µM and > 100 µM

## CCCCCC(=O)N[C@H]1CCc2cc(OC)c(OC)c(OC)c2-c2ccc(SC)c(=O)cc21
SNB-19 CNS
  TGI: 85.5 nM and 14.3 µM
IGROV1 ovarian
  TGI: 97.4 nM and > 100 µM
U251 CNS
  TGI: 55.5 nM and 10.8 µM
MALME-3M melanoma
  TGI: 67.2 nM and 42.9 µM
M14 melanoma
  TGI: 67.7 nM and 11.4 µM
SF-295 CNS
  TGI: 55.6 nM and > 100 µM
OVCAR-8 ovarian
  TGI: 68 nM and 11.6 µM

## CC(=O)c1cnc2ccc(-c3cc(Cl)c(O)c(Cl)c3)nc2c1NC1CCC(CN(C)C)CC1 (configuration not stated)
BT-549 breast
  GI50: 12.3 nM and 183 nM
SK-OV-3 ovarian
  GI50: 13.3 nM and 200 nM
OVCAR-3 ovarian
  GI50: 8.3 nM and 135 nM
NCI-H522 lung
  TGI: 42.2 nM and 545 nM
EKVX NSCLC
  TGI: 240 nM and 5.53 µM
K-562 leukemia
  GI50: 8.08 nM and 142 nM
UACC-62 melanoma
  GI50: 13.9 nM and 254 nM
  TGI: 76.1 nM and 827 nM
KM12 colon
  GI50: 16.6 nM and 231 nM
HCC-2998 colon
  TGI: 167 nM and 3.75 µM
SF-268 CNS
  GI50: 21.7 nM and 248 nM
CCRF-CEM leukemia
  GI50: 10.6 nM and 135 nM
PC-3 prostate
  GI50: 18.1 nM and 216 nM
IGROV1 ovarian
  GI50: 9.88 nM and 170 nM
  TGI: 111 nM and 1.75 µM
U251 CNS
  GI50: 9.76 nM and 189 nM
  TGI: 244 nM and 2.45 µM
NCI-H23 lung
  GI50: 8.81 nM and 167 nM
  TGI: 74.6 nM and 1.97 µM
COLO 205 colon
  TGI: 125 nM and 1.98 µM
LOX IMVI melanoma
  GI50: 15.6 nM and 216 nM
SW-620 colon
  GI50: 8.83 nM and 139 nM
T-47D breast
  GI50: 6.14 nM and 121 nM
  TGI: 37.2 nM and 482 nM
SK-MEL-5 melanoma
  GI50: 9.36 nM and 141 nM
SF-539 CNS
  GI50: 10.7 nM and 110 nM
ACHN renal
  GI50: 12.5 nM and 201 nM
  TGI: 221 nM and > 10 µM
MOLT-4 leukemia
  GI50: 13.1 nM and 240 nM
  TGI: 86 nM and 914 nM
NCI/ADR-RES ovarian
  TGI: 249 nM and 4.5 µM
HS 578T breast
  GI50: 12.2 nM and 196 nM
HCT-15 colon
  GI50: 7.95 nM and 131 nM
  TGI: 363 nM and > 10 µM
RPMI-8226 leukemia
  TGI: 180 nM and 2.19 µM
SN12C renal
  GI50: 9.82 nM and 139 nM
UO-31 renal
  GI50: 9.25 nM and 119 nM
NCI-H460 lung
  GI50: 11.7 nM and 199 nM
M14 melanoma
  GI50: 9.52 nM and 111 nM
DU-145 prostate
  GI50: 20.3 nM and 234 nM
HL-60(TB) leukemia
  GI50: 13.7 nM and 290 nM
  TGI: 124 nM and 1.3 µM
A549 NSCLC
  GI50: 11.6 nM and 158 nM
SF-295 CNS
  TGI: 170 nM and 2.38 µM
OVCAR-8 ovarian
  TGI: 290 nM and > 10 µM
